According to the BET-seq Pho4 binding data (Le et al. 2018):
Some of the results follow. Values were computed here from the reads of four pooled replicates and scatter widely.

What follows are sequences tested against T1, Pho4 (S. cerevisiae) (UniProt P07270) (assay: relative binding free energy (BET-seq); higher = weaker binding). Details: reference: library average.
T1 sequence: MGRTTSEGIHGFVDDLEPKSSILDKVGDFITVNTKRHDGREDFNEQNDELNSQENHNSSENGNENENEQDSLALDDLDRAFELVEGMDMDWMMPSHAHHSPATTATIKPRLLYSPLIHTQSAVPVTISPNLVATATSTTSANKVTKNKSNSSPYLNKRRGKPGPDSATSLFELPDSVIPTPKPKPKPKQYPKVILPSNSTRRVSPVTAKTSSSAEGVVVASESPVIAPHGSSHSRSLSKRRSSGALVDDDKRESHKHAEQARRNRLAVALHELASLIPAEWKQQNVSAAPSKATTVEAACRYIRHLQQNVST

Sequence | relative binding free energy
GGGTTCACGTGCCGGG | 0.27 kcal/mol
CTAGTCACGTGTATTG | 0.11 kcal/mol
TTACGCACGTGGTGGA | -0.19 kcal/mol
TGGATCACGTGGACGT | 0.12 kcal/mol
GGCTGCACGTGAGGTA | 0.19 kcal/mol
ATATACACGTGTCGGA | 0.14 kcal/mol
TGAGTCACGTGAGTGG | 0.31 kcal/mol
AGATGCACGTGGTGAT | -0.12 kcal/mol
TTGGGCACGTGCGGAA | -0.27 kcal/mol
TGGTACACGTGGGTCT | -0.17 kcal/mol
TTTGTCACGTGACTTA | 0.22 kcal/mol
GAGGTCACGTGCTGTG | 0.13 kcal/mol
TGAGGCACGTGAGTCG | 0.18 kcal/mol
TTCAGCACGTGTGTGG | -0.06 kcal/mol
GGGGGCACGTGACCGG | -0.06 kcal/mol
TTGGGCACGTGAATAA | 0.18 kcal/mol
AGCTTCACGTGTTCGT | 0.33 kcal/mol
GTAGTCACGTGTATGT | 0.1 kcal/mol
GGGGGCACGTGGGCCG | -0.13 kcal/mol
AAAGTCACGTGGTGAA | 0.06 kcal/mol
ATTTACACGTGTCGTG | -0.01 kcal/mol
CGAATCACGTGGGGGA | -0.07 kcal/mol
TCGAGCACGTGGGGCT | -0.32 kcal/mol

Sequence | relative binding free energy
AACTGCACGTGTGGTG | 0.05 kcal/mol
CGGTACACGTGTGTAA | 0.19 kcal/mol
TAGTACACGTGAGAGT | 0.22 kcal/mol
TATAACACGTGTATTG | -0.01 kcal/mol
GGTCGCACGTGGTTCG | -0.02 kcal/mol
AAAAGCACGTGATGGG | 0.15 kcal/mol
CTGGTCACGTGTGTGC | 0.17 kcal/mol
AAGCGCACGTGGGGCC | 0.1 kcal/mol
TTTGACACGTGTCGGG | 0.1 kcal/mol
GTGATCACGTGCGGGG | 0.13 kcal/mol
GGTGGCACGTGGTTAC | -0.16 kcal/mol
CGTGTCACGTGGGTTA | -0.05 kcal/mol
TGTGTCACGTGATTAT | 0.22 kcal/mol
CAAGGCACGTGGTAGT | -0.23 kcal/mol
GGAATCACGTGGGAGC | 0.14 kcal/mol
GGGCTCACGTGCGGTA | 0.1 kcal/mol
TTTTTCACGTGTGCTT | 0.28 kcal/mol
TGATGCACGTGGTAGT | -0.05 kcal/mol
GAGGACACGTGTGGTG | 0.13 kcal/mol
GTGGGCACGTGGCCGG | -0.21 kcal/mol
GCTGCCACGTGGGGCG | -0.11 kcal/mol
TTGTCCACGTGGAGGT | 0.01 kcal/mol
ATGGCCACGTGGTGAG | -0.13 kcal/mol

Sequence | relative binding free energy
CTGGACACGTGGTAGT | -0.1 kcal/mol
GGCTGCACGTGGGTAG | -0.09 kcal/mol
GTGAGCACGTGTTAAT | -0.06 kcal/mol
CTTTACACGTGTTTGG | 0.05 kcal/mol
TCCGGCACGTGTTGGT | 0.01 kcal/mol
AGGCGCACGTGATAGG | -0.03 kcal/mol
TGGTTCACGTGACCTT | 0.49 kcal/mol
AAATTCACGTGAGGGC | 0.38 kcal/mol
CAGAGCACGTGGTTTG | -0.08 kcal/mol
ATCGTCACGTGTGTGG | 0.19 kcal/mol
AGCTTCACGTGGGGGG | 0.11 kcal/mol
ATTGGCACGTGAGTAG | 0.21 kcal/mol
CTAGTCACGTGTAATG | 0.15 kcal/mol
ATTAGCACGTGCTGGA | -0.15 kcal/mol
GTCTTCACGTGTAGTG | 0.16 kcal/mol
CGGTTCACGTGGTGGA | 0.23 kcal/mol
ATTGACACGTGGGTGG | -0.15 kcal/mol
TATGTCACGTGGGACA | -0.08 kcal/mol
TATGGCACGTGATTAA | -0.02 kcal/mol
GGTGCCACGTGGAGCT | -0.13 kcal/mol
TATGCCACGTGGGTAT | -0.2 kcal/mol
GGGTGCACGTGATACG | -0.03 kcal/mol
TAGAACACGTGGATGG | 0.02 kcal/mol

Sequence | relative binding free energy
ACGGTCACGTGGGCGG | -0.23 kcal/mol
TATATCACGTGAGTTA | 0.2 kcal/mol
GTGTTCACGTGAGTGG | 0.52 kcal/mol
CTGCGCACGTGGTGTG | -0.23 kcal/mol
GGGCGCACGTGCGGGC | -0.21 kcal/mol
GGAAGCACGTGGAAGT | 0.05 kcal/mol
CAAGACACGTGTGGTT | 0.18 kcal/mol
TGGGTCACGTGTAGTC | 0.17 kcal/mol
GGTTGCACGTGAATGA | 0.29 kcal/mol
GGAAACACGTGTTATT | 0.04 kcal/mol
CATGTCACGTGGGTGA | -0.02 kcal/mol
GCTTGCACGTGATCGT | 0.27 kcal/mol
GGGACCACGTGTTTAT | 0.11 kcal/mol
GGGGACACGTGGTTCG | -0.12 kcal/mol
GTTTTCACGTGGAATT | 0.4 kcal/mol
GTCTGCACGTGGCTGA | 0.05 kcal/mol
TGGGACACGTGCACGG | -0.15 kcal/mol
GGAGCCACGTGGGCGT | -0.23 kcal/mol
TCGAGCACGTGGTCGG | -0.15 kcal/mol
TTTCTCACGTGAAGAG | 0.44 kcal/mol
TTTTACACGTGTGCAG | 0.13 kcal/mol
TCTGCCACGTGTGTGG | -0.03 kcal/mol
TGGGACACGTGGGTCT | -0.1 kcal/mol

Sequence | relative binding free energy
GTTAGCACGTGGTTCT | -0.1 kcal/mol
AAACTCACGTGTGGGG | 0.28 kcal/mol
TTGGGCACGTGTAATT | 0.08 kcal/mol
CATGTCACGTGTTGGT | 0.12 kcal/mol
ATGGGCACGTGTGTGT | -0.03 kcal/mol
AAGGTCACGTGATACT | 0.28 kcal/mol
CGTGTCACGTGAATAT | 0.36 kcal/mol
TGCATCACGTGGGGAA | 0.03 kcal/mol
ACTGTCACGTGTGTGA | 0.07 kcal/mol
AGTGTCACGTGGGCAG | -0.14 kcal/mol
TGTGGCACGTGGCTTG | -0.05 kcal/mol
GGGAACACGTGGAGGA | -0.08 kcal/mol
GGCGACACGTGTGTTG | 0.11 kcal/mol
TGGCTCACGTGTGTGA | 0.2 kcal/mol
TTGTGCACGTGTCGCG | 0.03 kcal/mol
CGTTTCACGTGCGGGT | 0.23 kcal/mol
GCTGTCACGTGTGCTG | 0.14 kcal/mol
TCGTGCACGTGTAAGG | 0.02 kcal/mol
ATATGCACGTGTCATG | -0.06 kcal/mol
GGTCGCACGTGTGGAG | 0.14 kcal/mol
GGTTACACGTGGTAAT | 0.21 kcal/mol
TGTAACACGTGTTCAT | 0.01 kcal/mol
TTATTCACGTGATGAT | 0.17 kcal/mol
